Consider 9 variants from the supplement of paper PMC12217912.

The other results are listed elsewhere or left out. The full chains were built here from the parent and the listed change. Inactive controls read about 0.05.

First the molecules themselves.
B1: TEV protease; numbered along this chain (parent)
chain: MGESLFKGPRDYNPISSSICHLTNESDGHTTSLYGIGFGPFIITNKHLFRRNNGTLVVQSLHGVFKVKDTTTLQQHLVDGRDMIIIRMPKDFPPFPQKLKFREPQREERICLVTTNFQTKSMSSMVSDTSCTFPSGDGIFWKHWIQTKDGQCGSPLVSTRDGFIVGIHSASNFTNTNNYFTSVPKNFMELLTNQEAQQWVSGWRLNADSVLWGGHKVFMVKPEEPFQPVKEATQL

The variants in the assay derive from B1. Description: raw area under fraction-flipped curve 0-4 h after induction (AUC4h, not background-subtracted), DNA-recorder readout of cleavage of the substrate (dimensionless); higher = more cleavage of the substrate by the protease variant. The note with it: temperature: 34 °C; time window: 0-4 h after rhamnose induction. The procedure: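 In vivo DNA recorder in E. coli TOP10(DE3) ΔrhaA at 34 °C. Each TEVp single-site mutant (parent TEVp 0) is paired with a single-site variant of the 7-mer TEVs (canonical ENLYFQ|S). The substrate sits between flexible linkers in a Bxb1-sfGFP-TEVs-SsrA fusion, so cleavage stabilises Bxb1 and speeds flipping of a recombination array, read by NGS. The value is the raw area under the fraction-flipped curve over 0-4 h after rhamnose induction (AUC4h), with ≥20 reads per time point. It is not background-subtracted; inactive controls average about 0.047.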
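Further: Bxb1 expression induced with 0.2% (w/v) L-rhamnose at OD600 near 0.5, cultures sampled hourly, flipped fraction per protease–substrate barcode pair counted by paired-end Illumina sequencing.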

With MGESLFKGPRDYNPISSSICHLTNESDGHTTSLYGIGFGPFIITNKHLFRRNNGTLVVQSLHGVFKVKDTTTLQQHLVDGRDMIIIRMPKDFPPFPQKLKFREPQREERICLVTTNFQTKSMSSMVSDTSCTFPSGDGIFWKHWIQTKDGQCGSPLVSTRDGFIVGIHSASNFTNTNNYFTSVPKNFMELLTNQEAQQWVSGWRLNADSVLWGGHKVFMVKPEEPFQPVKEAGQL [T233G], the “area with substrate ENLCFQS” value is 0.0866, the “area with substrate ENLDFQS” value was 0.0651, the “area with substrate ENLEFQS” value was 0.0733 and the “area with substrate ENLGFQS” value amounted to 0.0483. Besides, the “area with substrate ENLHFQS” value was 0.0882, the “area with substrate ENLNFQS” value stood at 0.054, the “area with substrate ENLPFQS” value was found to be 0.0619 and the “area with substrate ENLSFQS” value was found to be 0.0649. The “area with substrate ENLWFQS” value was 0.0755.
As to MGESLFKGPRDYNPISSSICHLTNESDGHTTSLYGIGFGPFIITNKHLFRRNNGTLVVQSLHGVFKVKDTTTLQQHLVDGRDMIIIRMPKDFPPFPQKLKFREPQREERICLVTTNFQTKSMSSMVSDTSCTFPSGDGIFWKHWIQTKDGQCGSPLVSTRDGFIVGIHSASNFTNTNNYFTSVPKNIMELLTNQEAQQWVSGWRLNADSVLWGGHKVFMVKPEEPFQPVKEATQL [F187I], the “area with substrate ENLCFQS” value was 0.0747, the “area with substrate ENLDFQS” value was found to be 0.0635, the “area with substrate ENLFFQS” value was found to be 0.0774 and the “area with substrate ENLGFQS” value worked out at 0.0657. The “area with substrate ENLIFQS” value amounted to 0.0832, the “area with substrate ENLKFQS” value stood at 0.0953, the “area with substrate ENLLFQS” value amounted to 0.0778 and the “area with substrate ENLNFQS” value was determined as 0.072. For the same variant, the “area with substrate ENLPFQS” value was found to be 0.0455, the “area with substrate ENLRFQS” value amounted to 0.0756, the “area with substrate ENLSFQS” value turned out to be 0.0774 and the “area with substrate ENLVFQS” value is 0.0812.
On to MGESLFKGPRDYNPISSSICHLTNESDGHTTSLYGIGFGPFIITNKHLFRRNNGTLVVQSLHGVFKVKDTTTLQQHLVDGRDMIIIRMPKDFPPFPQKLKFREPQREERICLVTTNFQTKSMSSMVSDTSCTFPSGDGIFWKHWIQTKDGQCGSPLVSTRDGFIVGIHSASNFTNTNNYFTSVPKNFMELLTNQEAQQWVSGWRLNADSVLWGGHKVFMVKPEEPFQPVKTATQL [E231T], for which the “area with substrate ENLCFQS” value came out at 0.0684, the “area with substrate ENLDFQS” value worked out at 0.0669, the “area with substrate ENLEFQS” value was determined as 0.0588 and the “area with substrate ENLFFQS” value was determined as 0.105. Further, the “area with substrate ENLGFQS” value was 0.0729, the “area with substrate ENLHFQS” value is 0.0639, the “area with substrate ENLKFQS” value was 0.0822 and the “area with substrate ENLNFQS” value was determined as 0.0588. In addition, the “area with substrate ENLPFQS” value is 0.0732, the “area with substrate ENLQFQS” value was found to be 0.0683, the “area with substrate ENLRFQS” value stood at 0.0551 and the “area with substrate ENLTFQS” value is 0.0752. Moreover, the “area with substrate ENLVFQS” value came out at 0.0578.
MGESLFKGPRDYNPISSSICHLTNESDGHTTSLYGIGFGPFIITNKHLFRRNNGTLVVQSLHGVFKVKDTTTLQQHLVDGRDMIIIRMPKDFPPFPQKLKFREPQREERICLVTTNFQTKSMSSMVSDTSCTFPSGDGIFWKHWIQTKDGQCGSPLVSTRDGFIVGIHSASNFTNTNNYFTSVPKNFMELLTNQEAQQWVSGWRLNADSVLWGGHKQFMVKPEEPFQPVKEATQL [V217Q]: the “area with substrate ENLCFQS” value was 0.0503, the “area with substrate ENLDFQS” value was found to be 0.0722, the “area with substrate ENLFFQS” value is 0.0498 and the “area with substrate ENLHFQS” value was 0.0605. In addition, the “area with substrate ENLIFQS” value worked out at 0.0714, the “area with substrate ENLKFQS” value amounted to 0.0598, the “area with substrate ENLLFQS” value is 0.0601 and the “area with substrate ENLNFQS” value came out at 0.0565. In addition, the “area with substrate ENLPFQS” value was found to be 0.0476, the “area with substrate ENLQFQS” value is 0.0619, the “area with substrate ENLRFQS” value amounted to 0.0628 and the “area with substrate ENLSFQS” value stood at 0.0456. The “area with substrate ENLVFQS” value was 0.0581.
In the case of MGESLFKGPRSYNPISSSICHLTNESDGHTTSLYGIGFGPFIITNKHLFRRNNGTLVVQSLHGVFKVKDTTTLQQHLVDGRDMIIIRMPKDFPPFPQKLKFREPQREERICLVTTNFQTKSMSSMVSDTSCTFPSGDGIFWKHWIQTKDGQCGSPLVSTRDGFIVGIHSASNFTNTNNYFTSVPKNFMELLTNQEAQQWVSGWRLNADSVLWGGHKVFMVKPEEPFQPVKEATQL [D11S], the “area with substrate ENLDFQS” value stood at 0.0663, the “area with substrate ENLEFQS” value was determined as 0.0682, the “area with substrate ENLFFQS” value worked out at 0.0808 and the “area with substrate ENLHFQS” value was 0.0672. In addition, the “area with substrate ENLIFQS” value was determined as 0.0884, the “area with substrate ENLKFQS” value stood at 0.0808, the “area with substrate ENLLFQS” value turned out to be 0.0856 and the “area with substrate ENLMFQS” value was determined as 0.0783. Also, the “area with substrate ENLNFQS” value amounted to 0.0758, the “area with substrate ENLPFQS” value turned out to be 0.0603, the “area with substrate ENLQFQS” value worked out at 0.0681 and the “area with substrate ENLRFQS” value turned out to be 0.083. For the same variant, the “area with substrate ENLSFQS” value is 0.0588, the “area with substrate ENLVFQS” value was 0.126 and the “area with substrate ENLWFQS” value was determined as 0.0639.
In the case of MGESLFKGPRDYNPISSSICHLTNESDGHTTSLYGIGFGPFIITNKHLFRRNNGTLVVQSLHGVFKVKDTTTLQQHLVDGRDMIIIRMPKDFPPFPQKLKFREPQREERICLVTTNFQTKSMSSMVSDTSCTFPSGDGIFWKHWIQTKDGQCGSPLVSTRDGFIVGIHSASNFTNTNNYFTSVPKNFMELLTNQEAQQWVSGWRLHADSVLWGGHKVFMVKPEEPFQPVKEATQL [N206H], the “area with substrate ENLCFQS” value amounted to 0.0728, the “area with substrate ENLDFQS” value was 0.0578, the “area with substrate ENLEFQS” value is 0.0482 and the “area with substrate ENLFFQS” value is 0.0736. The “area with substrate ENLGFQS” value worked out at 0.059, the “area with substrate ENLHFQS” value is 0.0652, the “area with substrate ENLIFQS” value stood at 0.0844 and the “area with substrate ENLNFQS” value was 0.0457. The “area with substrate ENLPFQS” value amounted to 0.0515, the “area with substrate ENLQFQS” value was 0.0817, the “area with substrate ENLSFQS” value stood at 0.064 and the “area with substrate ENLWFQS” value was determined as 0.0592.
Turning to MGESLFKGPRDYNPISSSICHLTNESDGHTTSLYGIGFGPFIITNKHLFRRNNGTLVVQSLHGVFKVKDTTTLQQHLVDGRDMIIIRMPKDFPPFPQKLKFREPQREERICLVTTNFQTKSMSSMVSDTSCTFPSGDGIFWKHWIQTKDGQCGSPLVSTRDGFIVGWHSASNFTNTNNYFTSVPKNFMELLTNQEAQQWVSGWRLNADSVLWGGHKVFMVKPEEPFQPVKEATQL [I167W], the “area with substrate ENLCFQS” value was 0.0543, the “area with substrate ENLDFQS” value worked out at 0.0608, the “area with substrate ENLFFQS” value came to 0.0723 and the “area with substrate ENLHFQS” value was determined as 0.0798. Further, the “area with substrate ENLIFQS” value turned out to be 0.0705, the “area with substrate ENLKFQS” value is 0.033, the “area with substrate ENLLFQS” value is 0.0552 and the “area with substrate ENLMFQS” value was 0.0494. Besides, the “area with substrate ENLNFQS” value is 0.06, the “area with substrate ENLPFQS” value is 0.0625, the “area with substrate ENLQFQS” value came to 0.0134 and the “area with substrate ENLRFQS” value is 0.0709. The “area with substrate ENLSFQS” value worked out at 0.0524.
Regarding MGESLFKGPRDYNPISSSICHLTNESDGHTTSLYGIGFGPFIITNKHLFRRNNGTLVVQSLHGVFKVKDTTTLQQHLVDGRDMIIIRMPKDFPPFPQKLKFREPQREERICLVTTNFQTKSMSSMVSDTSCTFPSGDGIFWKHWIQTKDGQCGSPLVSTRDGFIVGTHSASNFTNTNNYFTSVPKNFMELLTNQEAQQWVSGWRLNADSVLWGGHKVFMVKPEEPFQPVKEATQL [I167T], the “area with substrate ENLCFQS” value came to 0.0635, the “area with substrate ENLDFQS” value amounted to 0.0659, the “area with substrate ENLEFQS” value was found to be 0.062 and the “area with substrate ENLFFQS” value came out at 0.0552. The “area with substrate ENLGFQS” value came out at 0.0654, the “area with substrate ENLHFQS” value came to 0.0606, the “area with substrate ENLIFQS” value stood at 0.044 and the “area with substrate ENLKFQS” value came to 0.0522. Besides, the “area with substrate ENLLFQS” value came out at 0.0486, the “area with substrate ENLNFQS” value worked out at 0.0562, the “area with substrate ENLPFQS” value was 0.0489 and the “area with substrate ENLQFQS” value amounted to 0.0694. In addition, the “area with substrate ENLRFQS” value came out at 0.0679, the “area with substrate ENLSFQS” value worked out at 0.0737, the “area with substrate ENLVFQS” value came to 0.0677 and the “area with substrate ENLWFQS” value is 0.0726.
MGESLFKGPRDYNPISSSICHLTNESDGHTTSLYGIGFGPFIITNKHLFRRNNGTLVVQSLHGVFKVKDTTTLQQHLVDGRDMIIIRMPKDFPPFPQKLKFREPQREERICLVTTNFQTKSMSSMVSDTSCTFPSGDGIFWKHWIQTKDGQCGSPLVSTRDGFIVGIHSASNFTNTHNYFTSVPKNFMELLTNQEAQQWVSGWRLNADSVLWGGHKVFMVKPEEPFQPVKEATQL [N177H]: the “area with substrate ENLCFQS” value amounted to 0.0807, the “area with substrate ENLDFQS” value came to 0.0626, the “area with substrate ENLEFQS” value was 0.0409 and the “area with substrate ENLFFQS” value was 0.0663. Also, the “area with substrate ENLHFQS” value came to 0.0668, the “area with substrate ENLKFQS” value was 0.0758, the “area with substrate ENLNFQS” value was found to be 0.0553 and the “area with substrate ENLPFQS” value came out at 0.0642. In addition, the “area with substrate ENLQFQS” value amounted to 0.061, the “area with substrate ENLSFQS” value turned out to be 0.0584 and the “area with substrate ENLWFQS” value came to 0.0407.
